Results taken from a collection of fitness landscapes (doi:10.1016/j.celrep.2020.107928).
The full ranking holds about 81,000 sequences; the median of “one-hybrid fitness for binding parS DNA” is about -0.17, and the highest 2% start at about 0.51. Some of the results follow.

B1: Caulobacter ParB omega fusion; a variant is named by its letters at X, in order, B8GW30 (parent)
chain: MESVVVGEPGMSEGRRGLGRGLSALLGEVDAAPAQAPGEQLGGSREAPIEILQRNPDQPRRTFREEDLEDLSNSIREKGVLQPILVRPSPDTAGEYQIVAGERAWRAAQRAGLKTVPIMVRELDDLAVLEIGIIENVQRADLNVLEEALSYKVLMEKFERTQENIAQTIGKSXSHVANXMRLLXLPDEVQSYLVSGELTAXHARAIAAAADPVALAKQIIEGGLSVRETEALARKAPNLSAGKSKGGRPPRVKDTDTQALESDLSSVLGLDVSIDHRGSTGTLTITYATLEQLDDLCNRLTRGI

Variants of: B1
Assay: one-hybrid fitness for binding parS DNA (scaled: cognate 1, non-cognate 0); higher = stronger binding
Details: with parS DNA site
Procedure, shortened: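 In E. coli USO, a HIS3 reporter with its site placed 19 bp from the promoter was used to select Caulobacter ParB variants randomised at four specificity codons. Growth lasted 48 hours at 37°C on histidine-free M9 containing 0.1 mM IPTG and 5 mM 3-AT. Fitness was taken as the log change in variant-to-wild-type read ratio from Illumina sequencing of pre- and post-selection plasmids, rescaled between the non-cognate and cognate sites.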

Row | Variant | one-hybrid fitness for binding parS DNA
1 | GFWS | ≤ 0.2
2 | PEEL | ≤ 0.2
3 | DRTI | ≤ 0.2
4 | HAIV | ≤ 0.2
5 | GLSS | ≤ 0.2
6 | VKNG | ≤ 0.2
7 | QKQL | ≤ 0.2
8 | PTNC | ≤ 0.2
9 | VEAL | ≤ 0.2
10 | TSDV | ≤ 0.2
11 | GRFV | ≤ 0.2
12 | MTPC | ≤ 0.2
13 | VAIH | ≤ 0.2
14 | GKSP | ≤ 0.2
15 | NQSW | ≤ 0.2
16 | SHMR | ≤ 0.2
17 | RRLW | ≤ 0.2
18 | GSCV | ≤ 0.2
19 | QKQE | ≤ 0.2
20 | RVES | 0.948
21 | ESKS | ≤ 0.2
22 | QGIV | ≤ 0.2
23 | RTFA | 0.592
24 | SRAQ | ≤ 0.2
25 | SRSV | ≤ 0.2

Row | Variant | one-hybrid fitness for binding parS DNA
26 | QKRK | ≤ 0.2
27 | ARTM | ≤ 0.2
28 | WTAS | ≤ 0.2
29 | SKPS | ≤ 0.2
30 | SSSV | ≤ 0.2
31 | NCSG | ≤ 0.2
32 | KWMV | ≤ 0.2
33 | KLLI | ≤ 0.2
34 | PMTI | ≤ 0.2
35 | VSCI | ≤ 0.2
36 | TESE | ≤ 0.2
37 | PVEF | ≤ 0.2
38 | RPYP | ≤ 0.2
39 | HQTE | ≤ 0.2
40 | STKA | ≤ 0.2
41 | VWRR | ≤ 0.2
42 | NTSL | ≤ 0.2
43 | RDAQ | ≤ 0.2
44 | EDMY | ≤ 0.2
45 | PGRP | ≤ 0.2
46 | LRSL | ≤ 0.2
47 | RHIM | ≤ 0.2
48 | HEGW | ≤ 0.2
49 | ELVR | ≤ 0.2
50 | IIRY | ≤ 0.2

Row | Variant | one-hybrid fitness for binding parS DNA
51 | CVTC | ≤ 0.2
52 | QHLQ | ≤ 0.2
53 | YCAQ | ≤ 0.2
54 | VNKV | ≤ 0.2
55 | QSTY | ≤ 0.2
56 | YTGR | ≤ 0.2
57 | QIPS | ≤ 0.2
58 | HVKF | ≤ 0.2
59 | TIPL | ≤ 0.2
60 | QRGF | ≤ 0.2
61 | RYVE | ≤ 0.2
62 | RHQY | 0.424
63 | CKSE | ≤ 0.2
64 | SVIY | ≤ 0.2
65 | INVC | ≤ 0.2
66 | QILY | ≤ 0.2
67 | TKNR | ≤ 0.2
68 | FKAR | ≤ 0.2
69 | TWTI | ≤ 0.2
70 | PPFM | ≤ 0.2
71 | NITK | ≤ 0.2
72 | SEPM | ≤ 0.2
73 | QILS | ≤ 0.2
74 | FCHR | ≤ 0.2
75 | VLCG | ≤ 0.2

Row | Variant | one-hybrid fitness for binding parS DNA
76 | WCNY | ≤ 0.2
77 | RMVP | 0.206
78 | RRMS | 0.704
79 | SVFF | ≤ 0.2
80 | LILM | ≤ 0.2
81 | TLSR | ≤ 0.2
82 | TTAI | ≤ 0.2
83 | TGYV | ≤ 0.2
84 | YVYM | ≤ 0.2
85 | HYTT | ≤ 0.2
86 | WLIK | ≤ 0.2
87 | IEER | ≤ 0.2
88 | QYGI | ≤ 0.2
89 | LDAS | ≤ 0.2
90 | LPRV | ≤ 0.2
91 | TRGN | ≤ 0.2
92 | VITK | ≤ 0.2
93 | RYQQ | ≤ 0.2
94 | LVQS | ≤ 0.2
95 | RKHI | ≤ 0.2
96 | EHEF | ≤ 0.2
97 | NAAQ | ≤ 0.2
98 | CSHR | ≤ 0.2
99 | NLVT | ≤ 0.2
100 | HNWD | ≤ 0.2

Row | Variant | one-hybrid fitness for binding parS DNA
101 | KLVQ | ≤ 0.2
102 | LNAA | ≤ 0.2
103 | KATR | ≤ 0.2
104 | QRIG | ≤ 0.2
105 | ETEY | ≤ 0.2
106 | RWQS | 0.868
107 | IADY | ≤ 0.2
108 | TKRI | ≤ 0.2
109 | EIDT | ≤ 0.2
110 | HGFS | ≤ 0.2
111 | CSSY | ≤ 0.2
112 | ITSE | ≤ 0.2
113 | PNNC | ≤ 0.2
114 | QIQC | ≤ 0.2
115 | TVKV | ≤ 0.2
116 | PFIY | ≤ 0.2
117 | NCAR | ≤ 0.2
118 | RGMN | ≤ 0.2
119 | GNYI | ≤ 0.2
120 | GDHK | ≤ 0.2
121 | PNVG | ≤ 0.2
122 | DAIG | ≤ 0.2
123 | PWFC | ≤ 0.2
124 | GQTR | ≤ 0.2
125 | TYDR | ≤ 0.2

Row | Variant | one-hybrid fitness for binding parS DNA
126 | AVFT | ≤ 0.2
127 | SWFV | ≤ 0.2
128 | GTHD | ≤ 0.2
129 | HRMC | 0.225
130 | ELTR | ≤ 0.2
131 | KQGS | ≤ 0.2
132 | ACET | ≤ 0.2
133 | IDVW | ≤ 0.2
134 | SGFS | ≤ 0.2
135 | VLLV | ≤ 0.2
136 | FFAT | ≤ 0.2
137 | RQEG | 0.89
138 | TDGT | ≤ 0.2
139 | VGNR | ≤ 0.2
140 | YMNM | ≤ 0.2
141 | RDLF | ≤ 0.2
142 | AHPC | ≤ 0.2
143 | QKTD | ≤ 0.2
144 | SSRM | ≤ 0.2
145 | RFSD | ≤ 0.2
146 | FWSR | ≤ 0.2
147 | NPSD | ≤ 0.2
148 | TSMW | ≤ 0.2
149 | VVHV | ≤ 0.2
150 | VIHR | ≤ 0.2

Row | Variant | one-hybrid fitness for binding parS DNA
151 | EWHS | ≤ 0.2
152 | MHFR | ≤ 0.2
153 | TCYC | ≤ 0.2
154 | VSKR | ≤ 0.2
155 | APTT | ≤ 0.2
156 | QLKS | ≤ 0.2
157 | ARPD | ≤ 0.2
158 | RVMC | 0.95
159 | VTCG | ≤ 0.2
160 | PHHI | ≤ 0.2
161 | RLRP | ≤ 0.2
162 | MGNY | ≤ 0.2
163 | QTDD | ≤ 0.2
164 | SNRV | ≤ 0.2
165 | RDCM | ≤ 0.2
166 | DGVY | ≤ 0.2
167 | KCVR | ≤ 0.2
168 | MYVR | ≤ 0.2
169 | NLLV | ≤ 0.2
170 | KVEH | ≤ 0.2
171 | CHAD | ≤ 0.2
172 | VSYT | ≤ 0.2
173 | FHSR | ≤ 0.2
174 | QDCF | ≤ 0.2
175 | MYKY | ≤ 0.2

Row | Variant | one-hybrid fitness for binding parS DNA
176 | CCLG | ≤ 0.2
177 | RIEG | 0.771
178 | LHPY | ≤ 0.2
179 | VSEP | ≤ 0.2
180 | WAFS | ≤ 0.2
181 | IVAS | ≤ 0.2
182 | NAKV | ≤ 0.2
183 | SNQW | ≤ 0.2
184 | CDCM | ≤ 0.2
185 | DRCT | ≤ 0.2
186 | ARHV | ≤ 0.2
187 | RFEK | ≤ 0.2
188 | TDCS | ≤ 0.2
189 | MLRT | ≤ 0.2
190 | DVRY | ≤ 0.2
191 | WDPE | ≤ 0.2
192 | TPDK | ≤ 0.2
193 | VRVA | ≤ 0.2
194 | GPCM | ≤ 0.2
195 | HHAP | ≤ 0.2
